# Source: PubChem BioAssay AID686979 (National Center for Advancing Translational Sciences (NCATS), 2013)
# Several values for one entry are separate records, joined by “and”; a condition that tells them apart may be missing. Identical values can stand only once. Out of some 420,000 compounds screened, about 50,000 (12%) were called active. The inconclusive results got no clear call from the source; some entries with a clear call stand among them for comparison. Calls come from the whole dose curve; as a rule, active = well fitted inhibition curve with a large enough effect; inconclusive = small, poorly fitted or top-dose-only effect; inactive = flat fitted curve, though single readings scatter. Potencies of inconclusive entries are doubtful fits and often do not repeat.
# Experiment: qHTS for Inhibitors of human tyrosyl-DNA phosphodiesterase 1 (TDP1): qHTS in cells in presence of CPT; note: nearly all actives have a fitted effect of over 55% in size
# Details: chicken DT40 Tdp1-/-;hTDP1 cells + 20 nM CPT, ATP luminescence, 48 h; activity change, negative = growth inhibition: at 46.2 µM (top of the series) unless noted
# How it was run: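 Chicken DT40 Tdp1-/- cells stably complemented with human TDP1 were seeded at 400 cells/well in medium containing 20 nM camptothecin, exposed to pin-transferred compounds, and grown at 37 °C for at least 48 hr. Viability was read as ATP luminescence.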
# % is set by controls: 0 for no effect and ±100 for the full control effect; potency is the fitted concentration of half-maximal effect; tags give direction and shape of the fitted curve.
Structure (SMILES),Potency,"activity change, negative = growth inhibition"
CNC(=O)Cn1ncc2c3ccccc3n(C)c2c1=O,inactive,–
O=C(Nc1ccccc1C(=O)N1CCOCC1)C1CCC(=O)N1C1CCCC1 (centres undefined),"inconclusive: 35.5 µM [inhibitor, single point]",–
O=C(c1cccc([N+](=O)[O-])c1)N1CCN(Cc2ccccc2)CC1,inactive,–
O=C(CC(=O)N/N=C\c1cccc(Cl)c1Cl)NCc1ccccc1,"inconclusive: 20.6 µM [inhibitor, single point]",–
Cc1c2cnn(CC(=O)N3CCN(c4ccccc4)CC3)c(=O)c2c(C)n1Cc1ccc(F)cc1,active: 20.6 µM,–
CCOc1cccc(-c2nn3c(-c4cc(C)[nH]n4)nnc3s2)c1,"inconclusive: 35.5 µM [inhibitor, single point] and inconclusive: 29.1 µM [inhibitor, single point]",–
C=CCN1C(=O)C(Cc2cccc(Cl)c2)S/C1=N/N=C/c1ccco1 (centres undefined),"inconclusive: 29.1 µM [inhibitor, single point]",–
CCOc1ccc(-c2cccc(NC(=O)c3cccs3)c2)nn1,"inconclusive: 29.1 µM [inhibitor, single point]",–
O=C(Nc1ccc(N2CCOCC2)cc1)Nc1cnsn1,"inconclusive: 20.6 µM [inhibitor, single point]",–
O=C(COc1ccc(Br)cc1Cl)NC(=O)NC1CCCC1,"inconclusive: 29.1 µM [inhibitor, single point]",–
O=c1c2c(-c3ccccc3)csc2nc2c3ccccc3c(NCCN3CCOCC3)nn12,active: 8.2 µM,–
COc1c(C)cc(C(=O)C2CCCN(S(=O)(=O)N(C)C)C2)cc1C (centres undefined),"inconclusive: 29.1 µM [inhibitor, single point]",–
Cc1ccc(C)c(Cn2c(C(C)NC(=O)c3ccc(F)cc3)nc3ccccc32)c1 (centres undefined),inactive,–
CC(C)(C)C(=O)/C=c1\[nH]c(=O)/c(=C\c2ccc(C#N)cc2)s1,"inconclusive: 23.1 µM [inhibitor, single point]",–
CC(C)C[C@H]1COc2cccc(N3CCN(Cc4ccccc4F)CC3)c2S(=O)(=O)N1,"inconclusive: 29.1 µM [inhibitor, single point]",–
COc1ccccc1N1CCN(c2nc(CNC(=O)c3cc(C)oc3C)nc3ccccc23)CC1,–,inactive: -19.9% [at 9.04 µM]
COc1cc2nc(Cl)nc(NC3CCN(C)CC3)c2cc1OC,active: 11.2 µM,–
COc1cccc(/C=C/C(=O)Nc2ccc3nc4n(c(=O)c3c2)CCCC4)c1OC,active: 20.6 µM,–
COc1ccc(N2CCN(C(=O)c3c(C)oc4ncnc(N5CCCCC5)c34)CC2)cc1,"inconclusive: 16.4 µM [inhibitor, partial curve]",–
CCOCCCNC(=O)C(c1ccccc1)N(Cc1cccs1)C(=O)c1ccc(NC(C)=O)cc1 (centres undefined),"inconclusive: 18.4 µM [inhibitor, single point]",–
COc1ccc(-n2c(=O)n(Cc3ccccc3)c(=O)c3[nH]cnc32)cc1,"inconclusive: 29.1 µM [inhibitor, single point]",–
CC(C)(C)S(=O)N1Cc2cc(C(=O)N[C@@H]3CCN(Cc4ccccc4)C3)nc(-c3cccc(-c4cc5ccccc5o4)c3)c2[C@@H]1CCO (some centres undefined),"inconclusive: 23.1 µM [inhibitor, single point]",–
COc1cccc(N2C(=O)C(CC(=O)Nc3ccc(Cl)cc3)N(Cc3ccc4c(c3)OCO4)C2=O)c1 (centres undefined),"inconclusive: 18.4 µM [inhibitor, single point]",–

Structure (SMILES),Potency,"activity change, negative = growth inhibition"
CCn1c(=O)c2sccc2n2c(CCCC(=O)N3CCN(c4ccc(OC)cc4)CC3)nnc12,"inconclusive: 20.6 µM [inhibitor, single point]",–
CC(C)NC(=O)N1CC(c2ccccc2)C(c2ccc(Cl)cc2)=N1 (centres undefined),active: 11.6 µM,–
O=C(CNC(=O)c1ccccc1Br)N/N=C/c1ccccc1O,"inconclusive: 16.4 µM [inhibitor, single point]",–
Cc1cc(S(=O)(=O)NCc2ccccn2)c(Cl)cc1Cl,inactive,–
O=C(Nn1c(O)c(C=C2N=c3ccccc3=N2)sc1=S)c1cccc(Cl)c1,"inconclusive: 35.5 µM [inhibitor, single point]",–
COc1ccc(C(=O)N/C(=C/c2cccs2)c2nc3ccccc3[nH]2)cc1OC,"inconclusive: 29.1 µM [inhibitor, single point]",–
O=[N+]([O-])c1ccc(-n2cnc3ccccc32)c([N+](=O)[O-])c1,"inconclusive: 20.6 µM [inhibitor, single point]",–
Cc1cccc(-c2noc(CCCC(=O)NCc3ccco3)n2)c1,active: 14.6 µM,–
Cc1ccc(C(=O)N2CCC(C)CC2)cc1S(=O)(=O)N1CCCCC1,"inconclusive: 23.1 µM [inhibitor, single point]",–
Cc1ccc(O)c(NC(=O)CSc2n[nH]c(-c3ccccc3)n2)c1,"inconclusive: 23.1 µM [inhibitor, single point]",–
N#Cc1c(NC(=O)CSc2nc3ccccc3c(=O)n2Cc2ccco2)sc2c1CCCC2,–,inconclusive: -31.4% [inhibitor]
O=C(Nc1ccc(Br)cc1)C1CCCN(S(=O)(=O)c2ccc(Br)s2)C1 (centres undefined),"inconclusive: 16.4 µM [inhibitor, single point]",–
Cn1cc2c(=O)n(/N=C/c3ccccc3)cnc2n1,inactive,–
CCCCN(CC)C(=O)/C=C/c1cccc([N+](=O)[O-])c1,"inconclusive: 29.1 µM [inhibitor, single point]",–
Fc1cccc2sc(Nc3nnc(-c4ccco4)o3)nc12,"inconclusive: 29.1 µM [inhibitor, single point]",–
COc1cc(OC)cc(C(=O)NC2CCCN(Cc3ccc(Cl)cc3)C2)c1 (centres undefined),"inconclusive: 29.1 µM [inhibitor, single point]",–
COc1ccccc1CN(C)C(C)C(=O)Nc1cccc(C(C)=O)c1 (centres undefined),"inconclusive: 29.1 µM [inhibitor, single point]",–
O=C(Nc1nnc(SCC(=O)N2CCCc3ccccc32)s1)c1ccc2ccccc2c1,inactive,–
Cc1ccc(S(=O)(=O)NCCC(=O)N2CCN(C/C=C/c3ccccc3)CC2)cc1,"inconclusive: 18.4 µM [inhibitor, single point]",–
Clc1ccccc1Cc1noc(CN2CCCCC2CCc2ccccn2)n1 (centres undefined),"inconclusive: 9.2 µM [inhibitor, partial curve]",–
Cc1cc(C=O)c(C)n1-c1ccc(N2CCOCC2)cc1,"inconclusive: 29.1 µM [inhibitor, single point]",–
CC(C)(C)CC(C)(C)c1ccc(O)c(CN2CCN(CCC#N)CC2)c1,"inconclusive: 29.1 µM [inhibitor, single point]",–
COc1ccc(C=Cc2ccc3ccccc3n2)c(OC)c1,inactive,–

Structure (SMILES),Potency,"activity change, negative = growth inhibition"
CC(NC(=O)c1cc(COc2ccc3ncccc3c2)on1)c1ccc(F)cc1 (centres undefined),active: 6.51 µM,–
CCCCC(=O)N/N=C(\C)c1cccc(NC(=O)C2CC2)c1,"inconclusive: 8.2 µM [inhibitor, partial curve]",–
COc1ccc2c(c1)cc1c(=O)n(CC(=O)NCCCN3CCOCC3)nc(C)n12,inactive,–
Cc1ccc(-n2c(C)cc(/C=N/NC(=O)c3ccncc3)c2C)cc1,"inconclusive: 29.1 µM [inhibitor, single point]",–
CCC(Oc1ccccc1)C(=O)Nc1ccc(S(=O)(=O)Nc2cnc3ccccc3n2)cc1 (centres undefined),–,inconclusive: -33.6% [inhibitor]
CSCC[C@H](NC(=O)c1cccc(S(=O)(=O)N2CCN(C)CC2)c1)c1nc2ccccc2[nH]1,"inconclusive: 6.51 µM [inhibitor, single point]",–
CC(OC(=O)C1CCN(S(=O)(=O)c2ccc(C(C)(C)C)cc2)CC1)C(=O)N1CCOCC1 (centres undefined),"inconclusive: 16.4 µM [inhibitor, single point]",–
CC12CCC(C(=O)N/N=C/c3ccc(O)cc3O)(OC1=O)C2(C)C (centres undefined),active: 10.3 µM,–
CC(C)Sc1ncc(S(=O)(=O)c2ccccc2)c(=O)[nH]1,inactive,–
CC(=O)N1c2ccccc2N=C(c2ccc(C(F)(F)F)cc2)C1C(=O)NC(C)C (centres undefined),active: 20.6 µM,–
Cc1cccc2[nH]c(SCC(=O)N3CCOCC3)nc12,inactive,–
Nc1ncc(Br)cc1N=Cc1ccccc1,–,inconclusive: -31% [inhibitor]
Cc1cc(NC(=O)COc2ccc3ccccc3c2)no1,inactive,–
COc1ccc(/C(=N/O)C(C)(C)NO)cc1,"inconclusive: 29.1 µM [inhibitor, single point]",–
Cn1cnc(S(=O)(=O)N2CCN(c3cccc(Cl)c3)CC2)c1,inactive,–
O=C(CNC(=O)c1ccccc1)NCC(=O)OCC(=O)c1ccc2ccccc2c1,"inconclusive: 0.141 µM [inhibitor, full curve, poor fit]",–
COc1ccc2cc(C(=O)N/N=C/c3sc4ccccc4c3O)ccc2c1,active: 10.3 µM,–
CC(=O)Nc1ncnc2c1c(-c1ccc(Cl)cc1)nn2C(C)(C)C,"inconclusive: 29.1 µM [inhibitor, single point]",–
Cc1ccc2nc(NC(=O)Cc3cccs3)sc2c1,"inconclusive: 29.1 µM [inhibitor, single point]",–
O=C(Nc1ccccc1)Nc1ccc2c(c1)CCC2,inactive,–
Cc1ccc(N=C2NC(=O)/C(=C/C=C/c3ccco3)S2)cc1,"inconclusive: 23.1 µM [inhibitor, single point]",–
COc1cccc(CNC(=O)CN(C)S(=O)(=O)c2ccc3c(c2)n(C)c(=O)c(=O)n3C)c1,inactive,–
CN1c2ccccc2C2(C)CCCC3=Cc4cccc([N+](=O)[O-])c4OC312 (centres undefined),"inconclusive: 29.1 µM [inhibitor, single point]",–
